Results published in the RNAGym collection of RNA variant scans (doi:10.7554/elife.90254).
The source gives no read counts; variants with many changes may rest on few reads.

B1: OR4K15 (parent)
chain: GUUAACGGUCAUAGGCCAUGGAAACUAGGAGCACCAUUUCGCUGCCAGUGAAGAAAUGAACAAAGAAAAUCUGGGCCAGGCAGGCAUCAAAAGAAAUAGUCUUGCGCUCAACCAGAAAGUCUGUAAUCAUUUUAAGGGUA

Variants of: B1
Test: self-cleavage, relative activity (ratio to wild type); higher = more cleavage; in vitro, sequencing; the parent is a self-cleaving ribozyme
In the case of U43A A51G A66U, the self-cleavage is reported as 1.61. Variant A11U G65A A66G A92G has a self-cleavage of 0.66. For U9A U37C A86G U127C, the self-cleavage was 1.05. For U9A G48A A117G, the self-cleavage was 1.32. With A30G A63G A82G U100C U103A the self-cleavage was 1.62. In the case of A18U A96U U97G, the self-cleavage is reported as 1.72. U43C U108C A117G A129G gave a self-cleavage of 0. Variant G14A C71A A96G U122C U133C has a self-cleavage of 0.08. In the case of A18C A98G U132C, the self-cleavage is reported as 0.29. Work on A18U A23G G44A C109A yielded a self-cleavage of 0.51. With U43C A90G A92C the self-cleavage was 0.6. Work on U26A A69U C77A A86G yielded a self-cleavage of 0.75. G50A A59G A68G showed a self-cleavage of 1.08. In the case of G8A U38C A54G U108C, the self-cleavage is reported as 0.02. Work on A59G C105U U120C yielded a self-cleavage of 0.05. U19A U43A A60G showed a self-cleavage of 1.78. For A23G A66G A78G G84C, the self-cleavage was 0.08. Work on A18G A33U C88U U102C A140U yielded a self-cleavage of 1.68. Variant A62U A69U A111G has a self-cleavage of 0.01. Variant A11G U19A A33U A51G A118G has a self-cleavage of 1.09. With A33G G44A A94G A125G the self-cleavage was 0.25. In the case of A22G U39C G48A A59G, the self-cleavage is reported as 0.96. Variant A13U A68G A69G has a self-cleavage of 0.52. Work on G21A A22G A111G U132C yielded a self-cleavage of 0. A64G A125G A134G showed a self-cleavage of 0.51. Work on U9C A89G A117U yielded a self-cleavage of 0.83. A30G A117G U130C A140G gave a self-cleavage of 0.13. Work on A64G A69G A98U U127C yielded a self-cleavage of 1.47. In the case of A24G U43A U87C, the self-cleavage is reported as 0.28. U9C U39A U57C showed a self-cleavage of 0.81. For G15A A36G A67G U102A, the self-cleavage was 0.85. In the case of U19C A69G U87G, the self-cleavage is reported as 0.87. With A86U A89U A96U A117G the self-cleavage was 0.15. G15C A33G A51G showed a self-cleavage of 0.62. Work on A89G A94G A134U yielded a self-cleavage of 1.38. For A22U A94G U132C, the self-cleavage was 1.26. For A30U G75A U87A A126G, the self-cleavage was 0.03. Variant U19C A59G A60C A82U has a self-cleavage of 0.19. In the case of A30G U120C U131C U139C, the self-cleavage is reported as 0.9. U100C U108C U127C gave a self-cleavage of 0. Variant G20A A78U C105A U108A A114G has a self-cleavage of 0.01. U39G A60G A78G U122C showed a self-cleavage of 0.12. With A22G U38A U39C A69G A98U the self-cleavage was 2.21. Variant U2A A22G A92G A135G A140G has a self-cleavage of 0.76. For A5G U43C A67G, the self-cleavage was 1.84. U43C U57A A67G gave a self-cleavage of 1.74. U19A A89G A92G U132C showed a self-cleavage of 1.25. A51G A60C A98U A117G gave a self-cleavage of 2. In the case of A78U A95C A110G, the self-cleavage is reported as 0.01. Variant U9C A63G A68G A82G A91G U100C has a self-cleavage of 0.61. In the case of U19A A22G A68G A82G A90G A94G, the self-cleavage is reported as 0.71. For A23G A54G A129C, the self-cleavage was 0.8. A22G A24C A129G gave a self-cleavage of 0.57. A24G U87A U103A A118G gave a self-cleavage of 0.35. A24G A111U A116G gave a self-cleavage of 0. A52G A89G A134G gave a self-cleavage of 0.62. Work on U3C A23U A60G A129G U131C yielded a self-cleavage of 0.33. U9A A47G A111G G115U showed a self-cleavage of 0.01. In the case of G21A A30G U43C, the self-cleavage is reported as 1.57. Work on A24G A47G U49C A59G U100C U120C yielded a self-cleavage of 1.02. With G84U A92U U100C the self-cleavage was 0.27. In the case of A24G A56G A62G U87C C101U G115U, the self-cleavage is reported as 0. Variant U2A A117G U132C has a self-cleavage of 1.78. In the case of A22G U39A A69G, the self-cleavage is reported as 1.21. U2C U37C A62G A66G showed a self-cleavage of 1.08. For C32U G44A C76A U100C, the self-cleavage was 0.06. A11U U103C U108A gave a self-cleavage of 0.01. A13G A66G A126G gave a self-cleavage of 0.73. With A60U A62G A63G the self-cleavage was 1.4. Variant A11U U103C A114G has a self-cleavage of 0.12. With G29U A59U A89G the self-cleavage was 1.64. In the case of U9C A36U A95G, the self-cleavage is reported as 1.78. In the case of A5G U87A G123A, the self-cleavage is reported as 1.13. U2C U12C A126U gave a self-cleavage of 1.18. For A11G G14A A67G A94G A117G, the self-cleavage was 0.68. With U49C A66G U120A U139A the self-cleavage was 2.29. U43C A59G A67U gave a self-cleavage of 2.17. A24G A68U A69C showed a self-cleavage of 1.51. A59U A96G A116U showed a self-cleavage of 0.41. In the case of G31A U39C A54C, the self-cleavage is reported as 1.43. Work on U49A U72A A86C yielded a self-cleavage of 0.28. A5G A54U A62U U139A gave a self-cleavage of 0.98. For A11U U49C U87C A91G U122C, the self-cleavage was 0.47. Variant A24G A90G A91G A110G has a self-cleavage of 0.11.
